In patent US20090291088A1, “THERAPEUTIC COMBINATIONS OF ANTI-IGF-1R ANTIBODIES AND OTHER COMPOUNDS” (Biogen Idec MA Inc., priority 2008, published 2009):

B1: M13-C06.G4.P.agly: full-length hinge-modified aglycosylated human gamma 4, kappa antibody with the binding domain of Fab M13-C06 (antibody)
heavy: EVQLLESGGGLVQPGGSLRLSCAASGFTFSIYRMQWVRQAPGKGLEWVSGISPSGGTTWYADSVKGRFTISRDNSKNTLYLQMNSLRAEDTAVYYCARWSGGSGYAFDIWGQGTMVTVSSASTKGPSVFPLAPCSRSTSESTAALGCLVKDYFPEPVTVSWNSGALTSGVHTFPAVLQSSGLYSLSSVVTVPSSSLGTKTYTCNVDHKPSNTKVDKRV[human IgG4 Fc with S228P T299A (EU numbers) not written out]
light: DIQMTQSPLSLSASVGDRVTITCQASRDIRNYLNWYQQKPGKAPKLLIYDASSLQTGVPSRFGGSGSGTDFSFTIGSLQPEDIATYYCQQFDSLPHTFGQGTKLEIKRTVAAPSVFIFPPSDEQLKSGTASVVCLLNNFYPREAKVQWKVDNALQSGNSQESVTEQDSKDSTYSLSSTLTLSKADYEKHKVYACEVTHQGLSSPVTKSFNRGEC
B2: M14-G11.G4.P: full-length human IgG4.P version of Fab M14-G11 (antibody, V domains shown)
VH: EVQLLESGGGLVQPGGSLRLSCAASGFTFSNYPMYWVRQAPGKGLEWVSRISSSGGRTVYADSVKGRFTISRDNSKNTLYLQMNSLRAEDTAVYYCARDRWSRSAAEYGLGGYWGQGTLVTVSS
VL: DIQMTQSPDSLAVSLGERATINCKSSQSVLYSSNNKNYLAWYQQKPGQPPKLLIYLASTRESGVPDRFSGSGSGTDFTLTISSLQAEDVAVYYCQQYYSTWTFGQGTKVEIK

How the values were obtained:
[1] = system: BxPC3; assay: IGF-1 and IGF-2 stimulated tumor cell growth, CELL TITER-GLO, BxPC3; assay type: cell-based, human; details: IGF at 100 ng/ml, serum free
Method: NCI-H23, Calu-6, Colo-205, Panc-1, BxPC-3 (ATCC) tumor lines were purchased from ATCC. Cell lines were grown in complete growth medium containing RPMI-1640 (ATCC), 10% fetal bovine serum (Irvine Scientific Inc.) and 50 μg/ml of Gentamycin (Gibco, Invitrogen). Trypsin-EDTA solution (Sigma) was used for removal of adherent cells from culture vessels. Phosphate buffered saline, pH 7.2, was from MediaTech Inc The 96-well clear bottom plates for luminescent assay was purchased from Wallac Inc.
Cells grown to 80% monolayers were, trypsinized, washed, resuspended and plated into 96-well plates in 200 μl of 2% growth medium at 8×10^3 cells/well for NCI-H23 and Colo-205 cells; and 5×10^3 cells/well for Calu-6, Panc-1 and BxPC-3 cells. After 24 hours, the culture medium was replaced with 100 μl of serum free medium (SFM), and 50 μl of serially diluted antibodies at 4× concentration was added. […] All treatments were done in triplicates. Cell growth was measured using the CELL TITER-GLO™ Luminescent Cell Viability Assay (Promega, Madison, Wis.). The 1:1 mixture of reagent and SFM was added at 200 μl/well. Luminescence was detected on Wallac (Boston, Mass.) plate reader.
Method: The effect of antibody on tumor growth in vitro was measured using a CELL TITER-GLO™ assay (Promega Corporation, 2800 Woods Hollow Rd., Madison, Wis. 53711 USA). […] Inhibition was calculated as [1−(Ab−SFM)/(IGF−SFM)]×100%. […]

[2] = molecular target: IGF-1R (Homo sapiens, UniProt P08069); assay: Internalization of IGF-1R in MCF-7 cells, confocal microscopy; assay type: cell-based; parameters: wild type IGF-1R expressed on MCF-7 tumor cells; endogenous in cells; host or cells: MCF-7; details: 10 μg/ml, time 0, 15 and 60 minutes
Method: MCF-7 cells were seeded at 50,000 cells per well into 8 well chamber slides (Becton Dickinson Collagen Type 1 coated culture slides, BD BioCoat™ #354630) 48 hours prior to staining procedures. Cells were routinely maintained below 20 passages. On day of staining procedures, culture media was discarded from each well and replaced with 500 μl cold incubation buffer (MEM Eagle ATCC #30-2003+1% BSA). Cells were washed 2× with this buffer for 3 min each wash. 250 μl of each mAb or human G4.P.agly antibody to be tested was then added to the appropriate well at a concentration of 10 μg/ml, diluted in incubation media, and incubated on ice for 1 hour. A murine anti-human-IGF-1R antibody (Lab Vision/NeoMarkers, clone 24-31 cat# MS-641) was used as a positive control antibody to compare degree of internalization. After the 1 hour incubation on ice, the time zero (t=0′) slide was washed 3× with 500 μl of cold wash buffer (PBS+1% BSA+2% Goat serum) for 3 min each wash (slides always kept on ice!). The t=0 slide was then fixed with 500 μl 4% paraformaldehyde (diluted with PBS from 16% stock; EMS #15710) for 15 minutes at room temperature. The t=0 slide was then washed again 3× with cold wash buffer for 3 minutes each wash, then left on ice. Meanwhile, the remaining slides were put into a 37° C. incubator for their designated time points (15 and 60 minutes). […]

Molecule | inhibition of BxPC3 cell proliferation driven with IGF-1 and IGF-2 [1] | internalization of IGF-1R [2]
B1 | inhibited | rapid internalization of IGF-1R in 60 min
B2 | inhibited | internalization property similar to M13-C06.G4.P.agly
